Reference: article PMC4336329 (PLoS ONE, 2015)
Among all 310,000 compounds or so, about 2,200 (0.71%) showed an effect of 50% or more. The effect is printed as a negative number. The list shows a part of the results.

What follows are molecules tested against human ether-à-go-go-related gene (hERG) potassium channel (human, UniProt Q12809) (assay: primary screen, population patch clamp on CHO cells stably expressing hERG).
human ether-à-go-go-related gene (hERG) potassium channel, sequence (Q12809 whole entry, looked up): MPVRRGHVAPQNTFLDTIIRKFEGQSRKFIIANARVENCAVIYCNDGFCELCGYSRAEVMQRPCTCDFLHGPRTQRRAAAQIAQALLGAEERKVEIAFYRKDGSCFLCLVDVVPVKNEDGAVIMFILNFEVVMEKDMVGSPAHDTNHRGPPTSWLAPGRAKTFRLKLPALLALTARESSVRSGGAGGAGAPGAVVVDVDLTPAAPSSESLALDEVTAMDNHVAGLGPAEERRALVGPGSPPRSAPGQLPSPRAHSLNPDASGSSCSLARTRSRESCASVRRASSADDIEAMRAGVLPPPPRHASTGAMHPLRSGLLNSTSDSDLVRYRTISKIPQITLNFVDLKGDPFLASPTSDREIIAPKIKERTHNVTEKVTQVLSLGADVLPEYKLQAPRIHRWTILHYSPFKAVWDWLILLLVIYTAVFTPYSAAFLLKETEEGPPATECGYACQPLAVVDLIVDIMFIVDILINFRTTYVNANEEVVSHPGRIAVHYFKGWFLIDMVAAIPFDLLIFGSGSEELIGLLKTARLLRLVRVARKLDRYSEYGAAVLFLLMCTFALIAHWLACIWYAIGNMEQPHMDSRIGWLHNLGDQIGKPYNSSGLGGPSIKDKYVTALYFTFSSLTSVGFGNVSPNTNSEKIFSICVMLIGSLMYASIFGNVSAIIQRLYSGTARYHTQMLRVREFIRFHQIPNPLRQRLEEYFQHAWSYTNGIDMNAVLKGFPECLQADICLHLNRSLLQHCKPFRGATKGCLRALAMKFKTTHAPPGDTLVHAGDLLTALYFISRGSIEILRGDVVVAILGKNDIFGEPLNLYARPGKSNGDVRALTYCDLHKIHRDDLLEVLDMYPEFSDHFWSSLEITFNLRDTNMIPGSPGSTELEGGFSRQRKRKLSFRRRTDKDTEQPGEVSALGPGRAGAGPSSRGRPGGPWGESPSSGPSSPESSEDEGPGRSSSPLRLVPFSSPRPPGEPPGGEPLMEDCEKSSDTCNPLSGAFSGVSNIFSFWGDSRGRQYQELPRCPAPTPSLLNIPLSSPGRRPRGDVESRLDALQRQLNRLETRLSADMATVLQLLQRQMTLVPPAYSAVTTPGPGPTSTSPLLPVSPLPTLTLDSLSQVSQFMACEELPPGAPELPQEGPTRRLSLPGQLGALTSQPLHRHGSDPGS

Row | Compound | hERG current change (%, negative = inhibition) at 1uM [%]
1 | COc1ccc(C(=O)CCC(=O)Nc2cccnc2)c(OC)c1 | 13
2 | COC(=O)C1=C(C)N(C)C(=S)NC1c1ccccc1 (centres unmarked) | 3.43
3 | Cc1ccc(C)c(S(=O)(=O)Nc2ccc(C(N)=O)cc2)c1 | 12.3
4 | COC(=O)c1sccc1NC(=O)Nc1ccc(F)cc1 | 12.5
5 | CN1CCN(C(=O)CN(Cc2ccc(Cl)cc2)S(C)(=O)=O)CC1 | 7.83
6 | Cc1nnc(-c2ccccc2)c[n+]1[O-] | 11.7
7 | CCNc1nc(NC(C)CC)nc(Oc2ccc(OCC)nn2)n1 (centres unmarked) | 3.84
8 | COC(=O)c1ccccc1NC(=O)c1cc2ccccc2o1 | 10.8
9 | O=C(CN1CCN(Cc2ccc(F)cc2Cl)C1=O)NCCc1ccccc1 | 1.85
10 | CCN1CCN(Cc2ccc(NC(=O)c3cc(NC(=O)C4=NN(c5ccccc5)C(=O)C4)cc(OC)c3)cc2C(F)(F)F)CC1 | 8.91
11 | O=C(c1cc([N+](=O)[O-])ccc1Cl)N1CCN(c2ccc([N+](=O)[O-])cc2)CC1 | -58.8
12 | O=C1Nc2ccccc2C12OCCS2 (centres unmarked) | 7.52
13 | COCC(=O)N1CCC(Oc2ccc(C(=O)NC3CCOC(C)(C)C3)cc2)CC1 (centres unmarked) | 12.5
14 | O=C(Cc1ccccc1[N+](=O)[O-])N1CCc2ccccc2C1 | 7.61
15 | O=C(C1CCCN1S(=O)(=O)c1ccc(Cl)c(Cl)c1)N1CCOCC1 (centres unmarked) | 7.47
16 | CCOc1cc(N2CCOCC2)c(OCC)cc1NC(=O)Cc1cccc2ccccc12 | 13.2
17 | CCCN(CCC)C(=O)CC(c1ccc(F)cc1)c1ccco1 (centres unmarked) | -1.3
18 | O=[N+]([O-])c1ccc(C2OCCO2)cc1CS(=O)(=O)c1ccccc1 | 4.14
19 | O=S(=O)(Cc1ccccc1Cl)NCCc1ccccc1 | 9.64

Row | Compound | hERG current change (%, negative = inhibition) at 1uM [%]
20 | Cc1cccc(N2CCN(S(=O)(=O)c3ccc4c(c3)NC(=O)CO4)CC2)c1C | 6.92
21 | Clc1ccc(CN2CCN(c3ncccn3)CC2)cc1Cl | 10.8
22 | O=c1nc(N2CCCCC2)nc2n1CCO2 | 12.5
23 | Cc1ncc(CO)c(/C=N/NC(=O)c2cc3c(s2)CCCC3)c1O | 5.74
24 | CCC(C(=O)NCC1CCCO1)N(C(=O)c1snc(C(N)=O)c1N)c1ccc(Cl)cc1 (centres unmarked) | 17.7
25 | Cc1cccc(-c2nnc(SCCC(=O)N3CCOCC3)o2)c1 | 15.7
26 | CN1CCN(CCCNC(=O)c2cn(C3CCCCC3)c(=O)c3c2c2ccccc2n3C)CC1 | 7.28
27 | CC(=O)Nc1ccc(OC(F)(F)Cl)cc1 | 7.4
28 | COc1ccc(Nc2cc(Nc3cc(OC)c(OC)c(OC)c3)ncn2)cc1 | 1.96
29 | CCc1ccc(N=CC23c4ccccc4C(c4ccccc42)C2C(=O)N(c4ccc(OC)cc4)C(=O)C23)cc1 (centres unmarked) | 9.99
30 | COc1ccc(C(=O)c2nc3ccccc3n2C(C)C)cc1OC | 10.1
31 | O=C(CCNC(=O)c1ccco1)Nc1ccc(F)c(Cl)c1 | 15.7
32 | Cc1nnc(N(C)C(=O)Cc2ccc3c(c2)OCO3)s1 | 11.3
33 | C/C(=N\O)c1ccc2c(c1)CC(C)O2 (centres unmarked) | 13.6
34 | C#CCN(Cc1ccccc1)S(=O)(=O)C=C | 4.93
35 | C#CCOc1ccc(/C=C2/C(=O)N(c3cccc(C(=O)O)c3)N=C2C)cc1OC | 3.91
36 | COc1ccc(/C=N/NC(=O)c2cc(C(C)(C)C)[nH]n2)cc1COc1ccc(F)cc1F | 1.56
37 | COc1ccc(C(=O)NCC(=O)OCC(=O)Nc2ccc(C)c(S(=O)(=O)N(C)C)c2)cc1OC | 8.08
38 | CCn1c(SCc2ccc(C(=O)OC)o2)nnc1-c1c[nH]c2ccccc12 | -1.17

Row | Compound | hERG current change (%, negative = inhibition) at 1uM [%]
39 | CS(=O)(=O)c1ccc(Cl)c(NC(=O)CSc2nnc(C3CC3)n2C2CC2)c1 | 8.37
40 | Cc1ccc(C)c(N2CCN(C(=O)Cc3ccc(-n4c(=O)[nH]c5ccsc5c4=O)cc3)CC2)c1 | -12.7
41 | O=C(NCC1CCCO1)C1CC1(c1ccccc1)c1ccccc1 (centres unmarked) | 8.22
42 | N/C(Cc1ccc(Cl)c(Cl)c1)=N\OC(=O)c1ccc(Br)o1 | 14.8
43 | CN(NC(=O)c1ccc(Cl)cc1Cl)C1=NS(=O)(=O)c2ccccc21 | 4.9
44 | COc1ccc(C(=O)NCc2cc3ccccc3n2C)cc1 | 23.4
45 | N/C(=N\OC(=O)CCCN1C(=O)c2ccccc2C1=O)c1ccc(Cl)cc1 | -0.806
46 | O=C(COC(=O)c1cc([N+](=O)[O-])ccc1N1CCOCC1)NCc1ccc(Cl)cc1Cl | -27.5
47 | CCc1nnc(NS(=O)(=O)c2ccc(NC(=S)NC(=O)/C=C/c3ccc(C(C)C)cc3)cc2)s1 | 5.2
48 | CC(O)C(=O)N/N=C/c1ccccc1C(=O)O (centres unmarked) | 11.8
49 | Cc1noc(C)c1COc1ccccc1C(=O)N(C)CC(=O)Nc1ccc(Cl)c(Cl)c1 | 2.38
50 | O=C(NCc1cccnc1)Nc1ccc(Cl)c(Cl)c1 | 11.6
51 | CCN1CCN(CCC(=O)Nc2ccc(Br)c(C)c2)CC1.Cl | -3.9
52 | Cc1cc(-c2nnc(CCC(=O)NC(Cc3ccccc3)c3ccccc3)o2)no1 (centres unmarked) | 12.8
53 | Cc1ccc(NC(=O)Nc2nc3ccccc3s2)cc1NC(=O)Nc1nc2ccccc2s1 | 7.01
54 | CCCCCN(C(=O)CCC(=O)OCc1cccc(C(F)(F)F)c1)c1c(N)n(CCCC)c(=O)[nH]c1=O | 9.81
55 | CN(C)CCNc1nc(-c2ccco2)c2c(c1C#N)CC(C)(C)OC2 | -13.9
56 | CCOc1ccc(OCCSc2nnnn2-c2ccccc2)cc1 | 4.36
